Data taken from PubChem BioAssay AID624296 (National Center for Advancing Translational Sciences (NCATS), 2012).
Screen size: about 350,000 compounds; about 9,900 (2.8%) were called active. Inconclusive results, whose numbers are uncertain, are shown with a selection of clear calls. Calls follow the shape of the dose curve; as a rule, active = well fitted activation curve with a large enough effect; inconclusive = small, poorly fitted or top-dose-only effect; inactive = no such curve, though single readings can be large or run the other way. No potency is given beside an inconclusive call; the fits are too rough.

Assay: A quantitative high throughput screen for small molecules that induce DNA re-replication in MCF 10a normal breast cells. Also: nearly all actives have a fitted effect of over 50% in size.
Conditions: MCF 10A DNA re-replication, Hoechst nuclear intensity, 48 h; series mostly up to 46.1 µM
Potency is read from the fitted curve at half-maximal effect; tags tell the direction and shape of the fitted curve.

With `C=CCN=C1NN=C(c2cc(C)n(CC=C)c2C)CS1` as the compound, how does the Potency read?
Its Potency is inconclusive [activator, single point].

For `Cc1cccc(Nc2c([N+](=O)[O-])cc(C(=O)N3CC(=O)Nc4ccccc43)cc2[N+](=O)[O-])c1`, which Potency is on record?
The Potency was “inactive”.

Which Potency does the source give for `Cn1c(=N)n(CC(=O)c2ccc(Cl)c(Cl)c2)c2ccccc21` here?
Its Potency is inconclusive [activator, partial curve, poor fit].

Which Potency does the source give for `COc1ccc(C(=O)NCC(=O)NCC(=O)OCC(=O)c2ccc(C)cc2)cc1` here?
Its Potency is inconclusive [activator, single point].

For `Cc1ccc(OCC(=O)c2cc(C)n(Cc3ccco3)c2C)c([N+](=O)[O-])n1`, which Potency is on record?
Its Potency is inconclusive [activator, single point].

Which Potency does the source give for `COc1ccc(N2CCN(c3ncnc4scc(-c5ccc(C)cc5)c34)CC2)cc1` here?
Its Potency is active: 23.1 µM.

With `C=CCn1c(COc2ccc(Cl)cc2)nnc1SCC(=O)N/N=C/c1cccc(O)c1` as the compound, how does the Potency read?
Its Potency is “inactive”.

Which Potency does the source give for `COc1ccc2cc(S(=O)(=O)N3CCCCC3)ccc2c1S(=O)(=O)N1CCCCC1` here?
The Potency was inconclusive [activator, single point].

For `Cc1cccnc1NC(=S)Nc1ccc(Cl)c(Cl)c1`, which Potency is on record?
Its Potency is inconclusive [activator, partial curve, poor fit].

Which Potency does the source give for `CCCCCCCCCCOC(=O)Cn1c(COc2ccc(Cl)cc2)[n+](C)c2ccccc21` here?
Its Potency is inconclusive [activator, single point].

Which Potency does the source give for `CC(NC(=O)CCCCCNC(=O)N1CCn2c1nc1ccccc12)c1ccccc1` (configuration not stated) here?
The Potency was “inactive”.

With `O=S(=O)(c1ccc(Cl)cc1Br)N1CCCCC1` as the compound, how does the Potency read?
The Potency was “inactive”.

For `Cc1cc2nn(-c3ccc(Cl)cc3)nc2cc1N`, which Potency is on record?
Its Potency is active: 20.6 µM.

Which Potency does the source give for `O=C(NCCCc1ccccc1)c1c(O)nc2sccn2c1=O` here?
Its Potency is inconclusive [activator, partial curve, poor fit].

With `O=C(c1cn(Cc2ccccc2)nc1-c1ccc(Cl)cc1)N1CCN(c2ccccn2)CC1` as the compound, how does the Potency read?
Its Potency is inconclusive [activator, single point].

Which Potency does the source give for `c1ccc2c(c1)OCCOCCOCCOCCOCCOc1ccccc1OCCOCCOCCO2` here?
The Potency was inconclusive [activator, single point].

For `CCCC(=O)Nc1ccc(-c2csc(-c3cccnc3)n2)cc1`, which Potency is on record?
Its Potency is “inactive”.

With `Cc1cccc(-c2ccc(NC(=O)C3CCN(CC4CC4)CC3)cc2)c1` as the compound, how does the Potency read?
Its Potency is inconclusive [activator, partial curve, poor fit].

Which Potency does the source give for `O=c1[nH]c(/C=C/c2ccccc2)c([N+](=O)[O-])c(=O)[nH]1` here?
Its Potency is inconclusive [activator, partial curve].

With `CCN1C(=O)C(CC(=O)Nc2ccc(Br)cc2)N(CCCc2ccccc2)C1=S` (configuration not stated) as the compound, how does the Potency read?
Its Potency is inconclusive [activator, single point].

With `CCCC(CCC(=O)Nc1ccn(-c2ccccc2)n1)C(=O)O` (configuration not stated) as the compound, how does the Potency read?
Its Potency is “inactive”.

With `CCOC(=O)C1=C(C)C(c2ccc(OC)cc2)NC(=O)N1` (configuration not stated) as the compound, how does the Potency read?
The Potency was inconclusive [activator, partial curve, poor fit].

Which Potency does the source give for `CCOc1ccccc1N1CCN(Cc2cc3c(cc2[N+](=O)[O-])OCO3)CC1` here?
The Potency was inconclusive [activator, single point].

For `COc1ccc(C)c2sc(N(CCN(C)C)C(=O)c3ccc4ccccc4c3)nc12`, which Potency is on record?
The Potency was “inactive”.

With `O=C(NCCc1ccccc1)c1ccc(CS(=O)(=O)c2ccc(Br)cc2)o1` as the compound, how does the Potency read?
Its Potency is inconclusive [activator, partial curve, poor fit].

Which Potency does the source give for `CC[n+]1c(/C=C/c2ccc(N(C)C)cc2)ccc2ccccc21` here?
Its Potency is “inactive”.

Which Potency does the source give for `C=CCOc1ccc(/C=N/N2C(=O)C(CC(=O)Nc3ccc(F)cc3F)SC2=NC)cc1` (configuration not stated) here?
The Potency was inconclusive [activator, single point].

Which Potency does the source give for `Cc1ccc(C2(c3ccccc3)NC(=O)N(CC(=O)NC3CCCCC3)C2=O)cc1C` (configuration not stated) here?
Its Potency is inconclusive [activator, partial curve, poor fit].

For `CC(C)=CCN1CCN(Cc2ccoc2)CC1CCO` (configuration not stated), which Potency is on record?
Its Potency is inconclusive [activator, single point].

For `COc1ccc(C2COc3cc(O)ccc3C2)c(OC)c1O` (configuration not stated), which Potency is on record?
The Potency was inconclusive [activator, single point].

Which Potency does the source give for `Cc1ccc2c(c1)/C(=C/c1ccccc1C)C(=O)N2` here?
The Potency was inconclusive [activator, partial curve, poor fit].

Which Potency does the source give for `Cn1cncc1C#Cc1c(-c2ccc(S(C)(=O)=O)cc2)sc2ccccc12` here?
Its Potency is inconclusive [activator, full curve, poor fit].

For `CCOC(=O)c1c(C)nc2c3ccccc3ccn12`, which Potency is on record?
Its Potency is inconclusive [activator, full curve, poor fit].

Which Potency does the source give for `O=c1[nH]c(C2CCCN(S(=O)(=O)c3ccccc3)C2)nc2c1nnn2Cc1cccc(Cl)c1` (configuration not stated) here?
The Potency was inconclusive [activator, single point].

With `Cc1nc2sc(C(N)=O)c(N)c2c2c1CCCC2` as the compound, how does the Potency read?
Its Potency is inconclusive [activator, single point].

For `COc1cc(CN2CCN(c3cccc(C)c3C)CC2)cc(Br)c1O`, which Potency is on record?
Its Potency is inconclusive [activator, single point].

For `CCN(CCCNC(=O)Cn1ncc2c([nH]c3ccc(C)cc32)c1=O)c1cccc(C)c1`, which Potency is on record?
The Potency was inconclusive [activator, partial curve, poor fit].

With `Cc1cc(C(=O)NNc2ccccc2F)no1` as the compound, how does the Potency read?
Its Potency is active: 9.2 µM.

With `COc1ccc(C2CC(c3ccccc3)=NN2C(=O)CSc2ncccn2)cc1` (configuration not stated) as the compound, how does the Potency read?
Its Potency is inconclusive [activator, partial curve, poor fit].

With `Cc1nc(SCC(=O)OCc2ccccc2)c(C#N)c(-c2ccccc2)c1C(=O)Nc1ccccc1` as the compound, how does the Potency read?
The Potency was inconclusive [activator, single point].

With `CCCCn1c(N)c(N(Cc2ccccc2OC)C(=O)c2c(CC)noc2C)c(=O)[nH]c1=O` as the compound, how does the Potency read?
Its Potency is “inactive”.

With `NNC(=O)c1cnn(Cc2ccccc2)c1N` as the compound, how does the Potency read?
Its Potency is inconclusive [activator, partial curve, poor fit].
